{
  "source": "the RNAGym collection of RNA variant scans (doi:10.1101/gad.245936.114)",
  "parents": {"B1": {"name": "tRNA (parent)", "chain": "CUCUCGGUAGCCAAGUUGGUUUAAGGCGCAAGACUUUAAUUUAUCACUACGAAAUCUUGAGAUCGGGCGUUCGACUCGCCCCCGGGAGAUUUUUUCCUCGAGCAA"}},
  "note": "Variants at the floor of the assay are shown more often than the library holds them.",
  "data": [
    {"variants_of": "B1", "assay": "nonsense suppression (GFP-seq) (ratio to wild type); higher = more function; SUP4oc tRNA, yeast GFP reporter sort-seq", "outline": "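Yeast carrying genome-integrated SUP4oc tRNA variants from a library with ~3% random mutations were grown in raffinose/galactose medium with 80 mg/L adenine. Each strain also carried a galactose-driven GFP ochre reporter and RFP. Cells were sorted into GFP/RFP bins, and each bin was Illumina-sequenced (phred ≥30). Nonsense suppression (GFPSEQ) is the bin median GFP/RFP, weighted by each variant's estimated cell share per bin, relative to wild-type SUP4oc; variants needed ≥100 reads and ≥30 cells.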", "values": [
      {"variant": "G7U G18U G65U C81A", "nonsense suppression": "≤ 0.026"},
      {"variant": "U8A C11U U21C", "nonsense suppression": "≤ 0.026"},
      {"variant": "G7U A54G", "nonsense suppression": "≤ 0.026"},
      {"variant": "G7U A54C", "nonsense suppression": 0.0394},
      {"variant": "U8C U20A", "nonsense suppression": 0.0281},
      {"variant": "U8A A62C C75A", "nonsense suppression": "≤ 0.026"},
      {"variant": "G7U U17C U57G U70C", "nonsense suppression": "≤ 0.026"},
      {"variant": "U8A G32C G59A U71A", "nonsense suppression": "≤ 0.026"},
      {"variant": "G7U A33C", "nonsense suppression": "≤ 0.026"},
      {"variant": "G7U A33U", "nonsense suppression": "≤ 0.026"},
      {"variant": "G7U A33G", "nonsense suppression": "≤ 0.026"},
      {"variant": "G7U U70G", "nonsense suppression": "≤ 0.026"},
      {"variant": "G7U U57G A62C C80U", "nonsense suppression": "≤ 0.026"},
      {"variant": "G7U U16G", "nonsense suppression": "≤ 0.026"},
      {"variant": "G7U U16A", "nonsense suppression": "≤ 0.026"},
      {"variant": "G7U C11U C27A U76C", "nonsense suppression": "≤ 0.026"},
      {"variant": "U8A G18C C27G", "nonsense suppression": "≤ 0.026"},
      {"variant": "G7U U21G U70A A89G", "nonsense suppression": "≤ 0.026"},
      {"variant": "U8C G15A G26U", "nonsense suppression": "≤ 0.026"},
      {"variant": "U8C U21G C29U G73C", "nonsense suppression": "≤ 0.026"},
      {"variant": "U8G A14C C75A C81A G86A", "nonsense suppression": "≤ 0.026"},
      {"variant": "U8A A30U U35G", "nonsense suppression": "≤ 0.026"},
      {"variant": "G7U C83A", "nonsense suppression": "≤ 0.026"},
      {"variant": "U8C A9C C27A A89C", "nonsense suppression": "≤ 0.026"},
      {"variant": "U8C G18U G85A", "nonsense suppression": "≤ 0.026"},
      {"variant": "G7U G10C U21C C29U G66U", "nonsense suppression": "≤ 0.026"},
      {"variant": "G7U U63G U71A", "nonsense suppression": "≤ 0.026"},
      {"variant": "U8G A30G", "nonsense suppression": "≤ 0.026"},
      {"variant": "U8A G26U C72U", "nonsense suppression": "≤ 0.026"},
      {"variant": "U8A G61A C72G C81G", "nonsense suppression": "≤ 0.026"},
      {"variant": "G7U C27G G69U", "nonsense suppression": "≤ 0.026"},
      {"variant": "G7U U71C", "nonsense suppression": "≤ 0.026"},
      {"variant": "U8A G66C G73C C79A A89G", "nonsense suppression": "≤ 0.026"},
      {"variant": "G7U U35A C64G G84C", "nonsense suppression": "≤ 0.026"},
      {"variant": "U8C A9U C34G C68U", "nonsense suppression": "≤ 0.026"},
      {"variant": "U8C U21C U63C U76G", "nonsense suppression": "≤ 0.026"},
      {"variant": "U8A U17A G19A G28U C56A G59U", "nonsense suppression": "≤ 0.026"},
      {"variant": "G7U U57C G88A", "nonsense suppression": "≤ 0.026"},
      {"variant": "U8C C80G", "nonsense suppression": "≤ 0.026"},
      {"variant": "G7U C27G U76A", "nonsense suppression": "≤ 0.026"},
      {"variant": "U8C A33G G59U C68A", "nonsense suppression": "≤ 0.026"},
      {"variant": "G7U U63C G73C", "nonsense suppression": "≤ 0.026"},
      {"variant": "U8A U16C U21C C72G", "nonsense suppression": "≤ 0.026"},
      {"variant": "U8C G19C U57G G65A U71G", "nonsense suppression": "≤ 0.026"},
      {"variant": "U8A A13C U17C G86C", "nonsense suppression": "≤ 0.026"},
      {"variant": "U8A U57C", "nonsense suppression": "≤ 0.026"},
      {"variant": "U8A G25C G84A G88A", "nonsense suppression": "≤ 0.026"},
      {"variant": "G7U A62U C80A C81U", "nonsense suppression": "≤ 0.026"},
      {"variant": "G7U U17C U22C", "nonsense suppression": "≤ 0.026"},
      {"variant": "U8G A14U C83A", "nonsense suppression": "≤ 0.026"},
      {"variant": "G7U A54U U63C G88U", "nonsense suppression": "≤ 0.026"},
      {"variant": "U8A G19U U20A G78A", "nonsense suppression": "≤ 0.026"},
      {"variant": "G7U U8C A14U G15U U57A", "nonsense suppression": "≤ 0.026"},
      {"variant": "G7U C34U U71A", "nonsense suppression": "≤ 0.026"},
      {"variant": "U8A A14C U20C A24C", "nonsense suppression": "≤ 0.026"},
      {"variant": "G7U U21G", "nonsense suppression": "≤ 0.026"},
      {"variant": "U8A A14G U63G", "nonsense suppression": "≤ 0.026"},
      {"variant": "G7U C12A G15A C83G", "nonsense suppression": "≤ 0.026"},
      {"variant": "G7U U17A C64A G67C", "nonsense suppression": "≤ 0.026"},
      {"variant": "U8C G25C U57A U70C U76C", "nonsense suppression": "≤ 0.026"},
      {"variant": "G7U G19A A74C C79G", "nonsense suppression": "≤ 0.026"},
      {"variant": "G7U G26C U71G C82G", "nonsense suppression": "≤ 0.026"},
      {"variant": "U8C A9U", "nonsense suppression": "≤ 0.026"},
      {"variant": "U8C A24U U71C", "nonsense suppression": "≤ 0.026"},
      {"variant": "U8C U22C C56U G66U C72G", "nonsense suppression": "≤ 0.026"},
      {"variant": "U8A G25C U70A", "nonsense suppression": "≤ 0.026"},
      {"variant": "U8A A30C", "nonsense suppression": "≤ 0.026"},
      {"variant": "G7U C27G", "nonsense suppression": "≤ 0.026"},
      {"variant": "U8C A9C U17G G18A", "nonsense suppression": "≤ 0.026"},
      {"variant": "U8C A30C A89C", "nonsense suppression": "≤ 0.026"},
      {"variant": "U8A A31C A33G U63G C83A", "nonsense suppression": "≤ 0.026"},
      {"variant": "U8C A23U C34U U63C G65C", "nonsense suppression": "≤ 0.026"},
      {"variant": "U8C A9U C83A", "nonsense suppression": "≤ 0.026"},
      {"variant": "G7U A24U", "nonsense suppression": "≤ 0.026"},
      {"variant": "G7U A24G", "nonsense suppression": "≤ 0.026"},
      {"variant": "U8A A33U A54C A62C", "nonsense suppression": "≤ 0.026"},
      {"variant": "U8C G67C", "nonsense suppression": "≤ 0.026"},
      {"variant": "U8A C27A A62C", "nonsense suppression": "≤ 0.026"},
      {"variant": "U8A A60G G66U", "nonsense suppression": "≤ 0.026"},
      {"variant": "U8C A23C G73C", "nonsense suppression": "≤ 0.026"},
      {"variant": "U8A U58G", "nonsense suppression": "≤ 0.026"},
      {"variant": "U8C C34G U76C G84U", "nonsense suppression": "≤ 0.026"},
      {"variant": "U8C C11A U21A A30G U70A G73A C81G A89U", "nonsense suppression": "≤ 0.026"},
      {"variant": "U8C C11A U21A A30G U70A G73A C81G A89G", "nonsense suppression": "≤ 0.026"}
    ]}
  ]
}
